What was measured:
[1] = target: human FGFR1c polypeptide expressed in transfected rat L6 myoblasts (human, UniProt P11362 22-822); test: cell-based or functional assay
[2] = target: human FGFR4 polypeptide expressed in transfected rat L6 myoblasts (human, UniProt P22455 22-802); test: cell-based or functional assay
Sequence of UniProt P22455 (P22455 22-802): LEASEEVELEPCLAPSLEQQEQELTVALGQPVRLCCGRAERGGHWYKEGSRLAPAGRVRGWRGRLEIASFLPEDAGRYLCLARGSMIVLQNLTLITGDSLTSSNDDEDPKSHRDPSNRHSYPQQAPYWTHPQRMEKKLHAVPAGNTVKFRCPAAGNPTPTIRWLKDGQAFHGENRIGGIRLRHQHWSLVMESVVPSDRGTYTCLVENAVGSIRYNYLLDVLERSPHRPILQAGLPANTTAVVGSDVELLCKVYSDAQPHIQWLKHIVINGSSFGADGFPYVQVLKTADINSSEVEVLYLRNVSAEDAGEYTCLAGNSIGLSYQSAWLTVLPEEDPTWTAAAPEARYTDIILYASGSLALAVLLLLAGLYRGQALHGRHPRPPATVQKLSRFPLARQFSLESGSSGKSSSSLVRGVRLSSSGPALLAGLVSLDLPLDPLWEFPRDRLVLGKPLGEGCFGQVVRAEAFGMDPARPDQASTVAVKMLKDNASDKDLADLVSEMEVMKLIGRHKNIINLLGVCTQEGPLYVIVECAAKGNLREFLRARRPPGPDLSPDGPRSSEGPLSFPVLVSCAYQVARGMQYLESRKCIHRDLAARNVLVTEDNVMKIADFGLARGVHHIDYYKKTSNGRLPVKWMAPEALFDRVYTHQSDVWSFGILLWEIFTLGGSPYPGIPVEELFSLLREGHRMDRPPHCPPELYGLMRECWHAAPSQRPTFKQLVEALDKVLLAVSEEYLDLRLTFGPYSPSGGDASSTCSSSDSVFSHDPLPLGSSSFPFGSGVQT

Sequence of UniProt P11362 (P11362 22-822): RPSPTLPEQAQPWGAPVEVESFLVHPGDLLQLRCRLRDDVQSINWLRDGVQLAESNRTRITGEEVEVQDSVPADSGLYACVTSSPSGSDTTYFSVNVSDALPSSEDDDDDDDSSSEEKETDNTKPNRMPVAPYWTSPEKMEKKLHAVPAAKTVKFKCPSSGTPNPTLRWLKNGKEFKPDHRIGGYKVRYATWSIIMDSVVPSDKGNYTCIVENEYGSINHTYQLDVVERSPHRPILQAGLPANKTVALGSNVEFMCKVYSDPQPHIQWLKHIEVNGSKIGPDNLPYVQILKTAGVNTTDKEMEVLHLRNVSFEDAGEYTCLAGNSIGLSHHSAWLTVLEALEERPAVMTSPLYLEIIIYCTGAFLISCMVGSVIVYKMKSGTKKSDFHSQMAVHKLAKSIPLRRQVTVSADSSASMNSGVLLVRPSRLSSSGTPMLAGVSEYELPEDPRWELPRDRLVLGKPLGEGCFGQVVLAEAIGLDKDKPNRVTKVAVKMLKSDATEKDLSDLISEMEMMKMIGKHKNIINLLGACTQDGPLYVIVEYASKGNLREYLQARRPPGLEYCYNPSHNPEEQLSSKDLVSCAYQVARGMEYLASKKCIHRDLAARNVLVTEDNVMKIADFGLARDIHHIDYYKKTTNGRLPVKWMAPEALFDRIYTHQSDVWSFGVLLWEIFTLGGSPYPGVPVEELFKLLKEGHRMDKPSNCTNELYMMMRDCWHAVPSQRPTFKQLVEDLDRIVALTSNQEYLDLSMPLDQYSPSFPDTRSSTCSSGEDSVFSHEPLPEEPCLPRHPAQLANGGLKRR

B1: native human FGF19-Flag polypeptide (ligand)
chain: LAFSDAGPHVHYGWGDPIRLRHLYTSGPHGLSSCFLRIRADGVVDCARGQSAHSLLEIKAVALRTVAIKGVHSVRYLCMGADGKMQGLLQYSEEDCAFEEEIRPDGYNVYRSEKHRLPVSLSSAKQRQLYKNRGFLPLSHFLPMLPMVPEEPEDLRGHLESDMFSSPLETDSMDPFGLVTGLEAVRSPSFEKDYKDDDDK
For B1, the “EC50 of dose-dependent activation of luciferase (GAL4-Elk1 reporter), L6 cells with KLB and FGFR1c” value [1] was 0.0343 µg/mL and the “EC50 of dose-dependent activation of luciferase (GAL4-Elk1 reporter), L6 cells with FGFR4 and KLB” value [2] was 0.0026 µg/mL.

From patent publication US20110104152A1 (Genentech, published 2011)
